Results on 62 compounds are retold here after the supplement of paper PMC9446081.

Screen size: about 39,000 compounds; about 220 (0.56%) showed activity. Some of the results follow.
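Note: static incubation at 37 °C against the wild-type strain, values averaged over two biological replicates.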

The test system of this test is Escherichia coli K-12 BW25113. Briefly: relative growth (OD600 normalised to plate interquartile mean) (fraction); higher = less growth inhibition, active = 0.2 or less. The note with it: 50 µM; LB; incubation time: overnight (16-24 h).
As to `CN(C)CC#Cc1ccc([C@@H]2[C@H]3CN(C(=O)CN(C)C)CCCCN3[C@H]2CO)cc1`, the relative growth was inactive: 0.982. Regarding `C[C@H]1CCCCO[C@@H](CN(C)C(=O)Nc2ccc(F)cc2)[C@@H](C)CN([C@@H](C)CO)C(=O)c2cc(NC(=O)Cc3ccccc3)ccc2O1`, the relative growth was inactive: 0.987.

Regarding `COc1ccc(S(=O)(=O)N(C)C[C@@H]2OCCCC[C@H](C)Oc3ccc(NS(C)(=O)=O)cc3C(=O)N([C@@H](C)CO)C[C@H]2C)cc1`, the relative growth was inactive: 0.921. Then `COc1cc(C=CC(=O)N2CCCCCCC2)cc(OC)c1OC`, with inactive: 0.909; and `C[C@@H]1CN([C@@H](C)CO)C(=O)c2cc(NC(=O)Cn3cnnn3)ccc2O[C@H]1CN(C)C(=O)Nc1ccc(C(F)(F)F)cc1`, with inactive: 0.967; and `C[C@@H]1CCCCO[C@H](CN(C)Cc2ccc(C(=O)O)cc2)[C@@H](C)CN([C@H](C)CO)C(=O)c2cc(NC(=O)CCC(F)(F)F)ccc2O1`, with inactive: 1.04. Turning to `Cc1nn(C)c(C)c1C(=O)O`, the relative growth was inactive: 0.98. Under `C[C@@H]1CN([C@@H](C)CO)C(=O)c2cc(NC(=O)c3ccccc3)ccc2O[C@@H](C)CCCCO[C@H]1CN(C)Cc1ccc(C(F)(F)F)cc1` stands inactive: 0.908; under `CC(C)NC(=O)Nc1ccc2c(c1)C(=O)N([C@@H](C)CO)C[C@@H](C)[C@@H](CN(C)S(=O)(=O)c1ccccc1)O2`, inactive: 0.933; under `CO[C@H](CN(C)S(=O)(=O)c1ccc(Cl)cc1)[C@@H](C)CN([C@H](C)CO)S(=O)(=O)c1cccc(Cl)c1`, inactive: 1.01. `OC[C@H]1O[C@H]([S][Au])[C@H](O)[C@@H](O)[C@@H]1O`: the relative growth was inactive: 0.877. Under `C[C@@H]1CN([C@H](C)CO)C(=O)Cc2cc(NC(=O)Nc3cccc4ccccc34)ccc2O[C@H]1CN(C)Cc1ccc(-c2ccccc2)cc1` stands inactive: 1.05; under `COCCNC(=O)C[C@H]1CC[C@H]2[C@@H](COC[C@@H](O)CN2S(=O)(=O)c2ccccc2C)O1`, inactive: 0.998.

On to `Cc1noc(C)c1S(=O)(=O)Nc1ccc2c(c1)C(=O)N([C@@H](C)CO)C[C@@H](C)[C@@H](CN(C)Cc1ccc3c(c1)OCO3)O2`, for which the relative growth was inactive: 1.01. As for `CN(C)CCCNC(=O)[C@@]1(C)c2ccccc2C(=O)N(Cc2cc(F)cc(C(F)(F)F)c2)[C@H]1c1ccc(CO)cc1`, the relative growth was inactive: 1.01. As to `Cc1noc(C)c1NC(=O)N(C)C[C@H]1Oc2ccc(NC(=O)NC(C)C)cc2CC(=O)N([C@H](C)CO)C[C@H]1C`, the relative growth was inactive: 1.01. For the compound `NCC[C@H]1CC[C@H](NC(=O)Cc2ccncc2)[C@H](CO)O1`, the relative growth is inactive: 0.977. Then `C[C@@H]1CN([C@H](C)CO)C(=O)Cc2cc(NC(=O)C3CC3)ccc2O[C@H]1CN(C)C(=O)NC1CCCCC1`, with inactive: 0.97; and `C[C@H](CO)N1C[C@H](C)[C@@H](CN(C)C(=O)Nc2ccc3c(c2)OCO3)Oc2ncc(-c3cccnc3)cc2C1=O`, with inactive: 0.995. Regarding `COCCn1c(N)c(N(Cc2ccccc2)C(=O)C2=COCCO2)c(=O)[nH]c1=O`, the relative growth is inactive: 1. `CS(=O)(=O)NCCc1ccccc1`: the relative growth was inactive: 0.959. On to `C[C@@H]1CCCCO[C@@H](CN(C)S(=O)(=O)c2ccc(Cl)cc2)[C@@H](C)CN([C@H](C)CO)C(=O)c2cc(NC(=O)CCC(F)(F)F)ccc2O1`, for which the relative growth was inactive: 1.01. With `C[C@@H]1CN([C@H](C)CO)C(=O)c2cc(C#CCc3ccccc3)cnc2O[C@@H]1CN(C)CC1CCOCC1`, the relative growth was inactive: 1.

In the case of `C=C1C(=O)O[C@@H]2/C=C(\CO[C@@H]3O[C@H](CO)[C@@H](O)[C@H](O)[C@H]3OC(=O)Cc3ccc(O)cc3)CC/C=C(/C=O)C[C@H](O)[C@@H]12`, the relative growth was inactive: 1.01. `C[C@H](CO)N1C[C@H](C)[C@H](CN(C)S(=O)(=O)c2ccccc2)Oc2ccc(NC(=O)CCN3CCOCC3)cc2C1=O`: the relative growth is inactive: 1.01.

With `COc1ccc(-c2cnc3c(c2)C(=O)N([C@@H](C)CO)C[C@@H](C)[C@H](CN(C)C(=O)Cc2ccccn2)O3)cc1`, the relative growth was inactive: 0.978. Then `Cc1ccc(S(=O)(=O)Nc2ccc3c(c2)C(=O)N([C@@H](C)CO)C[C@@H](C)[C@@H](CN(C)C(=O)Nc2c(C)noc2C)OCCCC[C@@H](C)O3)cc1`, with inactive: 1.01. Take `C[C@H](CO)N1C[C@H](C)[C@H](CN(C)C(=O)Nc2cccc3ccccc23)OCCCC[C@H](C)Oc2ccc(NC(=O)c3ccncc3)cc2C1=O`: the relative growth is inactive: 0.967.

As to `CS(=O)(=O)N1C[C@H](NC(=O)C2CC2)[C@H]2OCCC[C@H]21`, the relative growth was inactive: 0.984. On to `C[C@@H]1CN([C@H](C)CO)C(=O)Cc2cc(NC(=O)Cn3cnnn3)ccc2O[C@H]1CN(C)C(=O)Nc1ccc(C(F)(F)F)cc1`, for which the relative growth was inactive: 0.984.

Regarding `C[C@H](CO)N1C[C@H](C)[C@@H](CN(C)C(=O)CN2CCOCC2)Oc2ncc(-c3cncnc3)cc2C1=O`, the relative growth is inactive: 0.982. For the compound `C[C@H]1CCCCO[C@@H](CN(C)C(=O)c2ccncc2)[C@@H](C)CN([C@@H](C)CO)C(=O)c2cc(NS(=O)(=O)c3ccc(Cl)cc3)ccc2O1`, the relative growth is inactive: 0.976. Turning to `CO[C@H](CN(C)S(=O)(=O)c1cccc(Cl)c1)[C@@H](C)CN([C@@H](C)CO)S(=O)(=O)c1cccc(Cl)c1`, the relative growth was inactive: 1.01. In the case of `C[C@H](CO)N1C[C@H](C)[C@H](CN(C)Cc2ccc(-c3ccccc3)cc2)Oc2ccc(NC(=O)C3CCCCC3)cc2C1=O`, the relative growth was inactive: 1.09. With `COc1ccc(S(=O)(=O)N(C)C[C@@H]2Oc3c(NS(=O)(=O)c4cn(C)cn4)cccc3C(=O)N([C@@H](C)CO)C[C@@H]2C)cc1`, the relative growth was inactive: 1.02. `C[C@H]1CN([C@@H](C)CO)C(=O)c2cccc(NC(=O)C3CC3)c2O[C@@H]1CN(C)C(=O)Nc1ccc2c(c1)OCO2`: the relative growth is inactive: 0.977. As to `Cc1ccc(S(=O)(=O)N(C)C[C@@H]2Oc3ncc(C#CC4(O)CCCC4)cc3C(=O)N([C@@H](C)CO)C[C@H]2C)cc1`, the relative growth is inactive: 1.01. As for `CCNC(=O)C[C@@H]1CC[C@@H](NC(=O)C2CCOCC2)[C@H](CO)O1`, the relative growth was inactive: 1.

Turning to `C[C@H](CO)N1C[C@H](C)[C@@H](CN(C)C(=O)C2CCOCC2)Oc2ncc(C#CC3(O)CCCC3)cc2C1=O`, the relative growth is inactive: 0.982. Take `C[C@H](CO)N1C[C@H](C)[C@@H](CN(C)Cc2ccc(Cl)c(Cl)c2)Oc2ccc(NC(=O)Cc3ccccc3)cc2C1=O`: the relative growth is inactive: 0.957. Consider `CSc1nc(Cl)cc(Cl)n1`, for which the relative growth is inactive: 1.02. With `O=C(O)CN1CCCCC1=O`, the relative growth was inactive: 1.02.

On to `Cc1ccc(Sc2c(-c3ccccc3)nc3sccn23)cc1`, for which the relative growth is inactive: 1.01. As for `Cc1noc(C)c1NC(=O)N(C)C[C@@H]1Oc2ccc(NC(=O)C3CC3)cc2C(=O)N([C@H](C)CO)C[C@H]1C`, the relative growth was inactive: 1. As for `CC(=O)NCc1nnnn1-c1ccc(C)cc1`, the relative growth is inactive: 0.991. As for `COCCN1CCC(CN)CC1`, the relative growth is inactive: 1.01. As for `C[C@@H]1O[C@@H](O[C@H]2[C@H](Oc3cc(O)c4c(c3)O[C@H](c3ccc(O)cc3)CC4=O)O[C@H](CO)[C@@H](O)[C@@H]2O)[C@H](O)[C@H](O)[C@H]1O`, the relative growth is inactive: 1.01. Consider `CCCC(=O)Nc1ccc2c(c1)OC[C@@H](C)N(Cc1ccc(-c3ccccn3)cc1)C[C@H](C)[C@@H](OC)CN(C)C2=O`, for which the relative growth was inactive: 0.996.

Turning to `Cc1noc(C)c1NC(=O)N(C)C[C@@H]1OCCCC[C@@H](C)Oc2ccc(NC(=O)c3ccccc3)cc2C(=O)N([C@@H](C)CO)C[C@H]1C`, the relative growth is inactive: 0.95.

On to `C[C@@H]1CN([C@H](C)CO)S(=O)(=O)c2ccc(C#CCN(C)C)cc2O[C@@H]1CN(C)C(=O)C1CCCCC1`, for which the relative growth was inactive: 0.994. Then `COc1ccc(-c2coc3cc(O)cc(O)c3c2=O)cc1`, with inactive: 1.11; and `C[C@H](CO)N1C[C@H](C)[C@H](CN(C)C(=O)Cc2ccncc2)Oc2cc(C3=CCCC3)ccc2S1(=O)=O`, with inactive: 0.966; and `COc1cc(-c2ccc(NN=C3C=Cc4c(S(=O)(=O)O)cc(S(=O)(=O)O)c(N)c4C3=O)c(OC)c2)ccc1NN=C1C=Cc2c(S(=O)(=O)O)cc(S(=O)(=O)O)c(N)c2C1=O`, with inactive: 1.69.

As for `CC1(C)O[C@H]2[C@H](O)C[C@](O)(C(N)=O)C[C@H]2O1`, the relative growth is inactive: 0.998. Turning to `C[C@@H]1CN([C@H](C)CO)C(=O)c2cccc(NC(=O)c3cnccn3)c2O[C@@H]1CN(C)Cc1ccc(C(=O)O)cc1`, the relative growth is inactive: 0.977. For `COc1ccc(COC[C@]23N=C4SCc5ccccc5C(=O)N4[C@H](c4ccccc4O2)[C@H]3CO[Si](C)(C)C(C)(C)C)cc1`, the relative growth is inactive: 1.01. With `CO[C@H]1O[C@H](CO)[C@@H](OC(=O)c2ccc(Br)cc2)[C@@H]2OC(=O)[C@H](Cc3ccccc3)C/C=C/C[C@@H](Cc3ccccc3)C(=O)O[C@@H]12`, the relative growth was inactive: 1.03. In the case of `C[C@]12CC[C@@H]3[C@]4(C=C[C@@]5(C=C4C(=O)c4cc6ccccc6s4)C[C@@H](O)CC[C@]35C)[C@@H]1CC[C@@]2(O)CN1CCC(n2c(=O)[nH]c3ccccc32)CC1`, the relative growth is inactive: 1.01. Under `Cc1ccc(OC[C@@H](O)CN)c(C)c1` stands inactive: 1.02; under `O=C(C[C@@H]1C=C[C@H](NC(=O)c2ccncc2)[C@H](CO)O1)NCc1ccncn1`, inactive: 1.01; under `COc1ccc(S(=O)(=O)N(C)C[C@H]2Oc3ccc(NC(=O)Cn4cnnn4)cc3C(=O)N([C@@H](C)CO)C[C@@H]2C)cc1`, inactive: 1.03. As to `COc1ccc(NC(=O)Nc2ccc3c(c2)C(=O)N([C@H](C)CO)C[C@H](C)[C@@H](CN(C)S(=O)(=O)c2ccc(C)cc2)OCCCC[C@@H](C)O3)cc1`, the relative growth is inactive: 1.02.
